# The other results are listed elsewhere or left out.
# Tested on: PfAP2-HC AP2 domain (GST-tagged)
# Experiment: gcPBM binding intensity (ln(normalized median fluorescence intensity)); higher = stronger DNA binding
# Procedure, shortened: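 An Agilent 4 × 180k array carrying primer-extended double-stranded 36-bp intergenic genomic probes and negative controls received GST-tagged P. falciparum DNA-binding domains expressed in E. coli, about 25 μg on average, for 1 h. The binding buffer contained 1× PBS, 1% milk, 0.2 mg/ml BSA, 0.5% salmon testes DNA and 0.03% Triton X-100. Binding intensity is the top Masliner-normalised natural-log median intensity across replicate spots of either probe orientation, read after Alexa488 anti-GST antibody staining and a 488 nm scan.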
row,Sequence,gcPBM binding intensity (ln)
1,ATATAAATAAATACAACACACATGTCATATCTAAAT [CACACA_site7533],9.94
2,AAAAAAAAAAAATGAGCACACATAAATAAAAACAAA [CACACA_site8447],9.87
3,TATATACATAAAATTTGTACATATATATATATATAT [XGTACX_site3214],9.83
4,TATTATATCTTATATGTATATTCCCACAAATTATAT [GTGCAC_negctrl_site362],9.59
5,AATATATAAACACGTACACACACATATATGTATATA [CACACA_site9168],10.3
6,AATTTAAATATTTGTTGTACGTATTTATATATTCTT [XGTACX_site3623],9.79
7,CATGCCGTTAAATTATGTACTTATTATTTTAATATG [XGTACX_site4209],9.64
8,ATAATATATAAACACACACACATATATAAATACATT [CACACA_site4466],10.5
9,TGGCAAAATAGGCACACACACATATACATATATATT [CACACA_site1059],10.3
10,TATATAATTAAAATAACACACATATATAAAAATATA [CACACA_site2990],9.94
11,ATATTATAGTATATAACACACATTTTTCATAACACT [CACACA_site6331],9.83
12,TTTTTTTCTTTTTGAGGTACGCATTATTTTATTTGT [XGTACX_site6996],9.6
13,ATAATTTGATGGTTAACACACATATAGATTATAGAT [CACACA_site7200],9.86
14,TTATTATATATATCTCGTACGTGTATACGCCTACCA [XGTACX_site8375],9.5
15,TGTTATATTTCAAATTGTACTAATCTAATTAATAAA [XGTACX_site604],9.18
16,AAAAAAATGAAACACACACACACATATATATATATA [CACACA_site1043],10.4
17,ACAAAGTTTATAGAACGTACATACTTACACATATTT [XGTACX_site556],9.73
18,AAACAATTACACATATGTATGTATATATATATATAT [TGCATGCA_negctrl_site536],9.68
19,TTGATATTTTTTTTATGTACACATGTTCATATTTTT [XGTACX_site8095],9.86
20,TCATCTTTTATATGTTGTACGTATTTTCATTTATAT [XGTACX_site4855],10.1
21,ATTTAAAAAAGAAAGGTGCATTTCAATAATGTAAAA [GTGCAC_site9585],9.51
22,AAGTAGTGTTAATACTGTACTTATATTTTTTATTAT [XGTACX_site8264],9.65
23,TCACATATTATCTTTACACACTATAAATAAGTTTTA [CACACA_site7335],9.69

row,Sequence,gcPBM binding intensity (ln)
1,TATACTTCTTATTAAATGAGTAGTATATATTATATA [TGCATGCA_negctrl_site299],9.49
2,CTATTTCATAAACACACACACACAAACAAACATATA [CACACA_site8234],11.5
3,AAAGATTGCGATGGTTGTACTTTTCTATATTTTTTT [XGTACX_site3492],9.88
4,CTAAAATACGAACACACACACACATATAAATAAATA [CACACA_site7872],11.2
5,AAGTACAAATTTAATAAAAATGAAACAAATATGTAT [TGCATGCA_negctrl_site94],9.77
6,TTTTTTAAAAGAAAATAAAAAATAAGCATAATATGA [CACACA_negctrl_site1574],9.34
7,AAGGTGGAAACAATTACACACACACTAATAAAAAAA [CACACA_site9051],10.8
8,AAGGGTTATTTGATATGTACTTATATATATATATAA [XGTACX_site1659],9.86
9,AAATTAAAAAAGAATATACACACCAAAACTGTTTGT [CACACA_site958],9.82
10,ACCATACATACATACACACACACACGCATATTTATA [CACACA_site7386],11.2
11,TAATTTTAAATATCTTCACACATTATATTTTTATAT [CACACA_site5411],9.76
12,TATAATAATACTTATTGTACGATTAGCTTAATTCGT [XGTACX_site15],9.51
13,TATATAAATAGATACACACATACATACATACATACA [CACACA_site260],10.6
14,ATGGAATTTTTAGAATATGGATAATGTTACTTAAGT [CACACA_negctrl_site494],9.49
15,AAAAACCATGGGCACACACACATAATATATAATATA [CACACA_site1425],10.4
16,TATATCGTTAATTATACACACATAAAATTAAACTTT [CACACA_site1274],9.65
17,GTTATATATATATATATATATATATATATTTTTTTT [GTGCAC_negctrl_site597],9.68
18,AGTGTTAAAAATGAGGGTACATATAAAATACAGTTC [XGTACX_site457],9.8
19,ACAGGATTGGTTCAAACACACATATTATATGACTAT [CACACA_site4536],9.81
20,TAATCATTTTAGCTTACACACAAAATTTGGTTATAA [CACACA_site5604],9.67
21,TATTTTAATTAATATACACACGCTTATATATATATA [CACACA_site7909],9.77
22,TTTCTTTTTTTTTTTTGTACATATTTTAATTATTTT [XGTACX_site8676],9.77
23,TATTATATATATAACTGTACGTTTATAATATAAAAA [XGTACX_site3778],9.47

row,Sequence,gcPBM binding intensity (ln)
1,TACAAACTATGATGCACACATATATATCTGTATCCA [CACACA_site4809],9.84
2,ATTATGTTATATACACGTACGTGTGCTTTATAATTA [XGTACX_site2728],10
3,ATAAAGTAGATATTTTGTACGCAGGTTGTATATATT [XGTACX_site1464],9.72
4,TACTTTACTAATATATATAGGAGAGTATACATGAAA [CACACA_negctrl_site63],9.55
5,GGAATTATAATAAATGGTACACATAAAAAAAAAAAA [XGTACX_site8343],9.73
6,CATATATAAATATGTATGCACTTTAACAAAATGTAT,9.54
7,ATTCCACCTTAAAACTGTACTTTCTCAATCTTTTAT [XGTACX_site796],9.72
8,ATATTTATTTATATGTGTACTTATGTTTATATAAAA [XGTACX_site4250],9.51
9,ATATATACTTATATTTGTACACAAAGGTATCTCTAG [XGTACX_site3805],9.64
10,GGAATAATAAAATTATGTACATAAGAATCATATACT [XGTACX_site6810],9.84
11,AAATAATACCAAATGTGTACTTATTTCACTAATAGA [XGTACX_site7571],9.71
12,AATAATATATAATAATGTACAAAAAAAAAAAAAAAA [XGTACX_site4158],9.3
13,AAGCTTTGGTGTTATGCATGCAATTAAACTATTAGT [TGCATGCA_site277],9.53
14,TTTTATTTTTTAGTAGTACACACTTTTTGTACCTTT [CACACA_site599],9.85
15,AAAAAAAAAAATCGCTGTACTTCTAAAGGTGTGTTA [XGTACX_site843],9.74
16,CAAACAAACGGACACACACACACACCCAAAAATGAT [CACACA_site5363],10.6
17,AGTTTTATATAAGCTTGTACTTAATATTATTAAGTA [XGTACX_site5919],9.64
18,TTTGATAAATTATACACACACAATATATATAAAATA [CACACA_site2023],10
19,ACGGACTTAAAATACACACACACCAAAAAAAAAAAA [CACACA_site7304],10.2
20,TATATAAAACATGGGTGTACCAACATAAATCATATA [XGTACX_site2320],9.8
21,AATTGTGCATTATATTGTACACGTGTTGTATATATT [XGTACX_site975],9.82
22,TTGAATATGGTTACATGTACGTATCAATATTTTTTA [XGTACX_site4247],9.69
23,ATTTTGTTATGAAACACACACATATAAATATAAATA [CACACA_site7679],9.88

row,Sequence,gcPBM binding intensity (ln)
1,AATACACGCAGACACACACACAAAAAAAAAAAAAAA [CACACA_site6384],10.7
2,ATATATATATATAGTTGTACTTAATTTTATATGTTA [XGTACX_site5256],9.9
3,TATATTATTTATTAGACACACATTATTAAAATATTT [CACACA_site4737],9.7
4,TGTTGTATATCTCTATATAGCTATATTGTATATATA [TGCATGCA_negctrl_site323],9.79
5,GTGAAATTATTTCCGTGTACACATAAATATATATTT [XGTACX_site3989],9.74
6,CCTTGATATATATAAAGTACATATATATATATATAT [XGTACX_site4325],9.61
7,AAACTTATAAAAAGTAGTACCATAAAATAATACATA [XGTACX_site6523],9.7
8,TTTTACAAATATTACTGTACACATTTTCATATAATT [XGTACX_site17],9.83
9,ATTAACACATTTAAGTGTACATATATAAATATATAT [XGTACX_site7098],9.69
10,TATACATTATTATTATGTACTTAAATATATATTATA [XGTACX_site5173],9.58
11,ATATAACTCAAGGGCACACATATACCTTTCCTTTTT [CACACA_site4390],9.85
12,GGAACGTATATTTTCACACACTCTCAAAAGTACAAG [CACACA_site2301],9.77
13,GAAACAAAATTATTTTGTACATATGACTGTAGATAT [XGTACX_site972],9.7
14,TGTGCACGTTCTGTGACACACATTTAAATGTGCTTA [CACACA_site176],9.79
15,AATATGTGAATATAATCACACACAATACGGAAACAC [CACACA_site8875],10.7
16,AAAGAAGGATAATAATGTACAAGCAAAAAAATAAAA [XGTACX_site466],9.84
17,AAATAATTATTTATCACACATATGTATTTATATATA [CACACA_site4589],9.68
18,CTTTTTTTAATGATAACACACATGTTGTGCATAGAC [CACACA_site3270],9.72
19,TTAGTTTCCCAAATATGTACATAAATATAAATCATA [XGTACX_site2746],9.54
20,TTATTATTTTTTAACACACACATATATATTATATCT [CACACA_site4906],9.97

# From the supplement of paper PMC11417369
